Data published in PubChem BioAssay AID1460 (National Center for Advancing Translational Sciences (NCATS), 2008).
In all, about 270,000 compounds went through this assay and about 5,800 (2.1%) were called active. Inconclusive means that the source gave no clear call. Such entries were picked first, then a sample of the others. Calls come from the whole dose curve; as a rule, active = well fitted inhibition curve with a large enough effect; inconclusive = small, poorly fitted or top-dose-only effect; inactive = flat fitted curve, though single readings scatter. Potencies beside an inconclusive call are fits to weak or partial responses and may not hold up.
% is set by controls: 0 for no effect and ±100 for the full control effect; potency is the fitted concentration of half-maximal effect; tags give direction and shape of the fitted curve.
Note: nearly all actives have a fitted effect of over 55% in size.

What follows are compounds tested against Microtubule-associated protein tau (Homo sapiens) (UniProt P10636) (assay: qHTS for Inhibitors of Tau Fibril Formation, Thioflavin T Binding). Settings: recombinant tau K18 P301L (four-repeat tau fragment), heparin-induced fibrillization, ThT fluorescence; series mostly up to 57.4 µM; activity, negative = inhibition: at the top concentration.
UniProt P10636, sequence (P10636 whole entry, looked up, the tested form may be a part): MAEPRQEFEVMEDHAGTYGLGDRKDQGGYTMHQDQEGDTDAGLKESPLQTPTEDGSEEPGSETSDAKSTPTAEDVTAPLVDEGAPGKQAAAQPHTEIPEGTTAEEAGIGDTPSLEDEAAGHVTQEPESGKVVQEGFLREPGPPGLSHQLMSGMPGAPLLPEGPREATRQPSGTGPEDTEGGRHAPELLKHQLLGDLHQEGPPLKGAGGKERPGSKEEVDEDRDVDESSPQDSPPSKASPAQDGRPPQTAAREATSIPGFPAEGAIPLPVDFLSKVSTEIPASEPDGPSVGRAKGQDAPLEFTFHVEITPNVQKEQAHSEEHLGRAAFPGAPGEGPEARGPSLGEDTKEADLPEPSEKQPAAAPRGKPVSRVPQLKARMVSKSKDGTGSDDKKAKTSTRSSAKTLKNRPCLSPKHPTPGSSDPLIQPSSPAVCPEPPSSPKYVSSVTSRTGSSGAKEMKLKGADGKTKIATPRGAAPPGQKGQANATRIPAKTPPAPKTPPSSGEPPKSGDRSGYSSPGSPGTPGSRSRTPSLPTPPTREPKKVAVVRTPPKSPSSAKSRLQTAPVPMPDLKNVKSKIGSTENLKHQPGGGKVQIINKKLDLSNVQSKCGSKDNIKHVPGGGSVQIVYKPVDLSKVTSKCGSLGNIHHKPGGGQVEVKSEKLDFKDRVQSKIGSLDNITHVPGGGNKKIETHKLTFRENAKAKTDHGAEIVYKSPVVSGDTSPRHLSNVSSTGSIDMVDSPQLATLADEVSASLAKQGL
Summary of the method: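 Heparin-induced (20 uM) aggregation of recombinant human K18 P301L tau, 15 uM unlabeled with 0.24 uM labeled, pH 7 acetate buffer, 6 hr at 37 C with compound. Fibrils quantified by 30 uM ThT fluorescence after 1 hr ambient incubation.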
Cc1ccc(-n2nc3ccc(NC(=O)c4oc5ccc(C)cc5c4C)cc3n2)cc1 was tested, and the Potency was inconclusive: 5.62 µM [inhibitor, partial curve, poor fit].
For O=c1c2c(-c3ccccc3)csc2ncn1/N=C/c1cccc([N+](=O)[O-])c1O, the Potency was active: 14.1 µM.
c1ccc2c(Nc3nc4c(s3)CCCC4)cccc2c1 was tested, and the Potency was inconclusive: 14.1 µM [inhibitor, partial curve].
For COC(=O)Cn1c2ccc(OC)cc2c2nc(C)sc21, the Potency was inconclusive: 39.8 µM [inhibitor, single point].
For COc1cccc(-c2nc(N3CCN(c4ccccc4)CC3)c3ccccc3n2)c1O, the Potency was inconclusive: 10 µM [inhibitor, partial curve, poor fit].
In the case of CCc1ccc(/C=C(/C#N)C(N)=S)s1, the Potency was inconclusive: 14.1 µM [inhibitor, partial curve].
O=[N+]([O-])/C=C/c1cc2ccccc2[nH]1 was tested, and the Potency was inconclusive: 17.8 µM [inhibitor, partial curve].
CCOc1ccccc1NC(=O)c1sc2nc(C)cc(C)c2c1N was tested, and the “activity, negative = inhibition” value was inactive: -7.09%.
In the case of Cc1coc2c(C)c3oc(=O)c(CC(=O)NCc4ccccc4)c(C)c3cc12, the “activity, negative = inhibition” value was inactive: 1.63%.
In the case of O=C(C1=C[C@H](C2CCCCC2)C[C@H](OCc2ccc(CO)cc2)O1)N1CCN(Cc2ccccc2)CC1, the Potency was inconclusive: 35.5 µM [inhibitor, single point].
For O=C(NNC(=O)c1cc2cc(Br)ccc2oc1=O)c1ccc(O)cc1O, the Potency was active: 8.91 µM.
In the case of O=C(N/N=C/c1ccncc1)c1cccc(N/N=C/c2ccncc2)c1, the Potency was inconclusive: 3.98 µM [inhibitor, partial curve].
With O=S(=O)(N/N=C/c1cccc(OC2CSC2)c1)c1ccccc1 the “activity, negative = inhibition” value was inactive: -2.33%.
For Cc1nn2cc(-c3ccc(Cl)cc3)nc2s1, the Potency was inconclusive: 8.91 µM [inhibitor, partial curve].
In the case of COc1ccc(CCNC(=O)CSc2ccsc2[N+](=O)[O-])c(OC)c1, the “activity, negative = inhibition” value was inactive: -19.3%.
O=C(Cc1ccccc1)N1CCN=C1SCc1cccc([N+](=O)[O-])c1 was tested, and the Potency was inconclusive: 20 µM [inhibitor, single point].
With CC1(C)CC(=O)C2=C(C1)Nc1cc(Cl)ccc1S2 the Potency was inconclusive: 17.8 µM [inhibitor, partial curve].
For O=C(OCC(=O)c1ccccc1Br)c1ccccn1, the “activity, negative = inhibition” value was inactive: -14.3%.
With COc1cc(O)c2c(c1)C(=O)c1cc(C)cc(O)c1C2=O the Potency was inconclusive: 3.55 µM [inhibitor, full curve].
With CCc1ccc(/C=C/C(=O)C2C(=O)c3ccccc3C2=O)cc1 the Potency was inconclusive: 31.6 µM [inhibitor, single point].
CC(C)[C@H]1c2ccc(F)cc2CC[C@@]1(CCN(C)CCCc1nc2ccccc2[nH]1)OC(=O)C1CC1 was tested, and the Potency was inconclusive: 20 µM [inhibitor, partial curve].
For COc1ccccc1CNC(=O)C1CCN(S(=O)(=O)c2c(C)noc2/C=C/c2c(C)cc(C)cc2C)CC1, the “activity, negative = inhibition” value was inactive: -0.469%.
In the case of COc1cccc(-c2nc(=S)c3c(o2)CCCC3)c1, the Potency was inconclusive: 15.8 µM [inhibitor, partial curve].
For CCc1ccccc1N(C)C(=O)CCc1nc(-c2ccc(C)cc2)no1, the “activity, negative = inhibition” value was inactive: -12.3%.
For Cn1cccc1CC(=O)N/N=C\c1c2ccccc2cc2ccccc12, the Potency was inconclusive: 14.1 µM [inhibitor, partial curve].
Cc1ccc(C(=O)Nc2cc([N+](=O)[O-])ccc2F)s1 was tested, and the Potency was inconclusive: 31.6 µM [inhibitor, single point].
CCCN1C(=O)C(O)(CC(=O)c2ccc(OC)c(OC)c2)c2ccccc21 (configuration not stated) was tested, and the “activity, negative = inhibition” value was inactive: 11.7%.
Cc1ccc(C)n1-c1c(C(=O)NCC(C)c2ccccc2)sc2ncccc12 (configuration not stated) was tested, and the Potency was inconclusive: 25.1 µM [inhibitor, single point].
For CC(C)NC(=S)NNc1nc2ccccc2s1, the Potency was inconclusive: 25.1 µM [inhibitor, partial curve].
With Cc1ccc2c(CC(=O)NCc3ccccc3)coc2c1C the “activity, negative = inhibition” value was inactive: -13.7%.
COc1ccc(C(=O)N(Cc2ccc(N(C)C)cc2)Cc2ccco2)cc1Cl was tested, and the Potency was inconclusive: 12.6 µM [inhibitor, partial curve].
In the case of COCCNCCOCCOc1ccc(Cl)c(C)c1, the “activity, negative = inhibition” value was inactive: -3.49%.
CCOc1cccc(/C=N/N2C(=O)CSC2=S)c1O was tested, and the Potency was active: 22.4 µM.
CC(=O)c1sc2nc(C)c3c(c2c1N)CCCC3 was tested, and the Potency was inconclusive: 39.8 µM [inhibitor, single point].
For Cc1cc(-c2ccc(C)c(S(=O)(=O)Nc3ccccc3C(F)(F)F)c2)on1, the Potency was inconclusive: 14.1 µM [inhibitor, partial curve].
In the case of Cc1ccc(C)c(C(=O)COc2ccc(C)nc2[N+](=O)[O-])c1, the Potency was active: 15.8 µM.
CCOC(=O)c1cnc2c(C)cc(C)cc2c1NCCc1ccc(OC)c(OC)c1 was tested, and the Potency was inconclusive: 39.8 µM [inhibitor, single point].
With CCOC(=O)c1ccc(N/N=C/c2cc(Br)cc([N+](=O)[O-])c2O)cc1 the Potency was active: 0.447 µM.
In the case of Oc1c(C(c2ccccn2)N2CCC(Cc3ccccc3)CC2)cc(Cl)c2cccnc12 (configuration not stated), the Potency was inconclusive: 31.6 µM [inhibitor, partial curve].
With C/C(=N\Nc1ccc(C(=O)O)cc1)c1nc2ccccc2n1C the Potency was inconclusive: 12.6 µM [inhibitor, partial curve].
In the case of Cc1ccc(C)c(N2CCN(C(=O)Nc3ccc4c(c3)N(C)C(=O)CS4)CC2)c1, the Potency was inconclusive: 14.1 µM [inhibitor, partial curve, poor fit].
COc1cccc(C(=O)Nc2ccc(S(=O)(=O)Nc3nccc(C)n3)cc2)c1 was tested, and the “activity, negative = inhibition” value was inactive: -5.51%.
In the case of COc1cccc(CNC(=O)CN2C(=O)CSc3c2c(C)nn3-c2ccccc2)c1OC, the “activity, negative = inhibition” value was inactive: -8.77%.
C=CCn1c(C)cc(C(=O)COC(=O)/C=C/c2ccc(OC)cc2)c1C was tested, and the Potency was inconclusive: 14.1 µM [inhibitor, partial curve].
S=c1[nH]nc(-c2cccnc2)o1 was tested, and the “activity, negative = inhibition” value was inactive: 0.392%.
In the case of O=C1C(c2cccc(Br)c2)N(CCc2ccccc2)C(=O)CN1C1CCCCC1 (configuration not stated), the “activity, negative = inhibition” value was inactive: -2.01%.
With COc1cc(CNn2c(C)n[nH]c2=S)cc(Cl)c1OCc1ccccc1 the Potency was inconclusive: 25.1 µM [inhibitor, partial curve].
